Measured values as given in publication PMC4336329 (PLoS ONE, 2015).
The whole screen tested about 310,000 compounds, of which about 2,200 (0.71%) showed an effect of 50% or more. Effects have a minus sign here. The list shows a part of the results.

The molecules below were run against human ether-à-go-go-related gene (hERG) potassium channel (human, UniProt Q12809) (assay: primary screen, population patch clamp on CHO cells stably expressing hERG).
human ether-à-go-go-related gene (hERG) potassium channel, sequence (Q12809 whole entry, looked up): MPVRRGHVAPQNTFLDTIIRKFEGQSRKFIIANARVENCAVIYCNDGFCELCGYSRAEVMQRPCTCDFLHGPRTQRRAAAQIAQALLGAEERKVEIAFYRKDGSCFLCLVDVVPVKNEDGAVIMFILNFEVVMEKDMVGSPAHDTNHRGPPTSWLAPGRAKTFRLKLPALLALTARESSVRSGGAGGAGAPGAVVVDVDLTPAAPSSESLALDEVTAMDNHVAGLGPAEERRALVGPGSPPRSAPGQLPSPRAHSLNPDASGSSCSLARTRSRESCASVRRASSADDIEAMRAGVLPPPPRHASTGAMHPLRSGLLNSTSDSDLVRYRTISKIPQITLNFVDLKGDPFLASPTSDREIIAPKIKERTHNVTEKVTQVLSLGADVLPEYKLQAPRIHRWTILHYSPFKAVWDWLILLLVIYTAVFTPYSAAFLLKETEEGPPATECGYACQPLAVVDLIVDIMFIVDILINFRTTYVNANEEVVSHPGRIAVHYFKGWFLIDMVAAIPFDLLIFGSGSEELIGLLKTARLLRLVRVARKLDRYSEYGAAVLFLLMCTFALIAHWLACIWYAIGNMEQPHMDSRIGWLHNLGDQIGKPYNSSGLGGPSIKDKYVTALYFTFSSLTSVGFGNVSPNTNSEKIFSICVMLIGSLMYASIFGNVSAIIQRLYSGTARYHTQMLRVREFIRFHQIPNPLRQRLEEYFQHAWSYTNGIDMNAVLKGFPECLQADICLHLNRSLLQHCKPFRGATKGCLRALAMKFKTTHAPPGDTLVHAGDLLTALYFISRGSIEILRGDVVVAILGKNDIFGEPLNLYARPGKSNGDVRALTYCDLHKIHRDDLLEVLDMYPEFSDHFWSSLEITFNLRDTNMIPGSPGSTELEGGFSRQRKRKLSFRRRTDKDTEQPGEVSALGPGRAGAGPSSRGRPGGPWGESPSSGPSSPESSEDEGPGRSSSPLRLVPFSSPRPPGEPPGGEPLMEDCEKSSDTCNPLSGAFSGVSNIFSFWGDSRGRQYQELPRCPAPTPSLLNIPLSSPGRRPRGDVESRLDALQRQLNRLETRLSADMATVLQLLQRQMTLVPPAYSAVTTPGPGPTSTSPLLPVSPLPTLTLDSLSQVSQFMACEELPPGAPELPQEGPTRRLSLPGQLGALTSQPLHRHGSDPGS
In the case of C=Cn1ccnc1P(O)(=S)c1nc(C)c(CCOC(C)=O)s1 (centres unmarked), the “hERG current change (%, negative = inhibition) at 1uM” value is reported as -2.08%.
In the case of CCCNC(=O)CN1CCN(S(=O)(=O)c2ccc(Br)s2)CC1, the “hERG current change (%, negative = inhibition) at 1uM” value is reported as -0.838%.
With CC(=O)N1c2ccccc2NC2=C(C(=O)CCC2)C1c1ccc(F)cc1 (centres unmarked) the “hERG current change (%, negative = inhibition) at 1uM” value was 6.44%.
In the case of COCCNC(=O)c1ccc2c3n(nc2c1)-c1ccc(Cl)cc1CO3, the “hERG current change (%, negative = inhibition) at 1uM” value is reported as -0.937%.
COCC(=O)N(Cc1cc2ccc(C)cc2[nH]c1=O)c1ccc(OC)cc1 was tested, and the “hERG current change (%, negative = inhibition) at 1uM” value was 2.24%.
Cc1cccc(Nc2c(F)c(F)c(F)c(F)c2C(=O)O)c1 was tested, and the “hERG current change (%, negative = inhibition) at 1uM” value was 9.87%.
O=C(NCCc1ccc2c(c1)OCCO2)c1cccc(F)c1 was tested, and the “hERG current change (%, negative = inhibition) at 1uM” value was 5.26%.
With COc1ccc([C@@H]2CC=C(C(=O)O)[C@H](c3ccc(F)cc3)N2S(=O)(=O)c2ccc(Cl)cc2)cc1 the “hERG current change (%, negative = inhibition) at 1uM” value was 16%.
In the case of O=C(Nc1cc(C(F)(F)F)ccc1N1CCOCC1)C1Cc2ccccc2CN1C(=O)c1ccco1 (centres unmarked), the “hERG current change (%, negative = inhibition) at 1uM” value is reported as 10.9%.
Cc1occc1C(=O)NNC(=O)c1ccccc1[N+](=O)[O-] was tested, and the “hERG current change (%, negative = inhibition) at 1uM” value was 15.8%.
In the case of CN(Cc1ccccc1)C(=O)COc1ccccc1, the “hERG current change (%, negative = inhibition) at 1uM” value is reported as 8.18%.
In the case of O=C1CN(C(=O)COC(=O)CNS(=O)(=O)/C=C/c2ccccc2)c2ccccc2N1, the “hERG current change (%, negative = inhibition) at 1uM” value is reported as 10.2%.
CC(C)OCCCNC(=O)CN1CCN(Cc2ccccc2Cl)C1=O was tested, and the “hERG current change (%, negative = inhibition) at 1uM” value was 2.66%.
In the case of O=C(Cn1c(=O)n(Cc2ccco2)c(=O)c2ccccc21)NCC1CCCO1 (centres unmarked), the “hERG current change (%, negative = inhibition) at 1uM” value is reported as 12.6%.
For O=S(=O)(c1ccccc1)c1nc(-c2ccccc2)oc1NCCCN1CCOCC1, the “hERG current change (%, negative = inhibition) at 1uM” value was -2.08%.
With O=C(O)C1CSC(c2ccc3c(c2)OCO3)N1 (centres unmarked) the “hERG current change (%, negative = inhibition) at 1uM” value was 7.87%.
For Cc1ccc(S(=O)(=O)N2CCC(C(=O)OCC(=O)N(C)C3CCS(=O)(=O)C3)CC2)cc1C (centres unmarked), the “hERG current change (%, negative = inhibition) at 1uM” value was 6.56%.
For COc1cc(N2CCOCC2)ccc1/C=C1\C(=O)NC(=O)N(C2CCCCC2)C1=O, the “hERG current change (%, negative = inhibition) at 1uM” value was 7.79%.
In the case of CCNc1c2c(nc3ccccc13)CC(C)(C)CC2=O.O=C(O)C(=O)O, the “hERG current change (%, negative = inhibition) at 1uM” value is reported as -38.1%.
With Cc1ccc(S(=O)(=O)N2CCOCC2)cc1C(=O)N1c2ccccc2Sc2ccccc21 the “hERG current change (%, negative = inhibition) at 1uM” value was 9.26%.
Cc1ccc(C)c(N(C(=O)Cc2cccs2)C(C(=O)NC2CCCC2)c2ccc(C)o2)c1 (centres unmarked) was tested, and the “hERG current change (%, negative = inhibition) at 1uM” value was 7.45%.
For CC(=O)c1ccc(N2CCN(C(=O)c3noc4c3CSc3ccccc3-4)CC2)cc1, the “hERG current change (%, negative = inhibition) at 1uM” value was 14.9%.
With O=C(NCc1ccc(F)cc1)c1ccc(CS(=O)(=O)Cc2ccccc2F)o1 the “hERG current change (%, negative = inhibition) at 1uM” value was 9.27%.
With Cc1ccc(NC(=O)CCC(=O)N2CCOCC2)nc1 the “hERG current change (%, negative = inhibition) at 1uM” value was 11.3%.
With CC1(C(=O)N/N=C/c2c(F)c(F)c(F)c(F)c2F)CC1(Cl)Cl (centres unmarked) the “hERG current change (%, negative = inhibition) at 1uM” value was 15.2%.
With COc1ccc(NC(=O)CSc2nnc(-c3ccncc3)n2CC2CCCO2)c(OC)c1 (centres unmarked) the “hERG current change (%, negative = inhibition) at 1uM” value was 5.44%.
With COc1ccc(OC)c(NC(=O)Nc2ccc3c(c2)CCC3)c1 the “hERG current change (%, negative = inhibition) at 1uM” value was 9.13%.
COc1cc(C(CCN2CCCC2)c2c(OC)cc(OC)c3c(C)cc(=O)oc23)cc(OC)c1OC (centres unmarked) was tested, and the “hERG current change (%, negative = inhibition) at 1uM” value was -69%.
With COC(=O)c1cccc(NC(=O)c2cccs2)c1C the “hERG current change (%, negative = inhibition) at 1uM” value was 10.4%.
In the case of CCC1Oc2ccccc2N(CC(=O)NCCCN2CCC(C)CC2)C1=O (centres unmarked), the “hERG current change (%, negative = inhibition) at 1uM” value is reported as 0.839%.
O=C1COc2ccc(S(=O)(=O)Nc3ccc(F)cc3)cc2N1 was tested, and the “hERG current change (%, negative = inhibition) at 1uM” value was 9.76%.
In the case of CCCN(Cc1nnc(-c2ccccc2Cl)o1)C(=O)c1cc2ccccc2o1, the “hERG current change (%, negative = inhibition) at 1uM” value is reported as 5.07%.
With Cn1c(SCC(=O)Nc2cc(C(C)(C)C)nn2-c2ccccc2)nc2ccccc21 the “hERG current change (%, negative = inhibition) at 1uM” value was 6.86%.
CS(=O)(=O)N(CC(=O)N1CCOCC1)c1cccc(F)c1 was tested, and the “hERG current change (%, negative = inhibition) at 1uM” value was 21%.
With COc1ccc(NC(=S)N2CCN(c3ccccn3)CC2)cc1OC the “hERG current change (%, negative = inhibition) at 1uM” value was 12%.
CCOC(=O)C1=C(c2ccccc2)O/C(=C(/C(=O)OC)C(F)(F)F)S1 was tested, and the “hERG current change (%, negative = inhibition) at 1uM” value was 7.22%.
CCCn1c(SCC(=O)c2ccc3c(c2)OCCO3)nnc1-c1ccco1 was tested, and the “hERG current change (%, negative = inhibition) at 1uM” value was 12.7%.
Cc1cc(SCC(=O)NN=C2CCN(C(C)C)CC2)c(C)cc1Br was tested, and the “hERG current change (%, negative = inhibition) at 1uM” value was -1.46%.
For COc1ccc([N+](=O)[O-])cc1NC(=O)CSCc1cc(C)cc(C)c1, the “hERG current change (%, negative = inhibition) at 1uM” value was 9.81%.
In the case of CCOc1ccc(CNc2nnnn2C)cc1OC, the “hERG current change (%, negative = inhibition) at 1uM” value is reported as 8.7%.
In the case of CCOC(=O)C(CN1CCCC1)c1ccccc1 (centres unmarked), the “hERG current change (%, negative = inhibition) at 1uM” value is reported as 8.71%.
COc1ccc(OC)c(CNC(=O)c2cc(=O)[nH]c3ccc(S(=O)(=O)N4CCCC4)cc23)c1 was tested, and the “hERG current change (%, negative = inhibition) at 1uM” value was 13.5%.
For O=C(CCNC(=O)c1ccc(Cl)cc1)Nc1ccc(F)cc1F, the “hERG current change (%, negative = inhibition) at 1uM” value was 20.9%.
With CC(C)(C)c1ccc(NC(=O)c2ccccc2)c([N+](=O)[O-])c1 the “hERG current change (%, negative = inhibition) at 1uM” value was 3.52%.
